The campaign covered roughly 370,000 compounds. About 150 (0.041%) were called active. Inconclusive means that the source gave no clear call. Such entries were picked first, then a sample of the others. Calls follow the shape of the dose curve; as a rule, active = well fitted inhibition curve with a large enough effect; inconclusive = small, poorly fitted or top-dose-only effect; inactive = flat fitted curve, though single readings scatter. Potencies of inconclusive entries are left out as doubtful fits.
What follows are compounds tested against Beta-lactamase (Escherichia coli (strain K12)) (UniProt P00811) (assay: qHTS Inhibitors of AmpC Beta-Lactamase (assay with detergent)). Settings: AmpC hydrolysis of nitrocefin, absorbance 480 nm, 0.01% Triton; activity change, negative = inhibition: at 114 µM (top of the series).
How it was run: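 20 mM phosphate pH 7.0 + 0.01% (detergent screen) or 0.0001% Triton X-100; 5.3 nM AmpC reagent; cpd preinc 15 min RT; nitrocefin (800 uM stock) to start; A480 q20 s × 4 min; Activity was normalised to no-enzyme and no-compound control wells.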
Also: nearly all actives have a fitted effect of over 25% in size.
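For activity change, negative = inhibition in this document: 0% = no-compound wells and -100% = no-enzyme wells.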
Potency is read from the fitted curve at half-maximal effect; tags tell the direction and shape of the fitted curve.

Sequence of UniProt P00811 (P00811 whole entry, looked up): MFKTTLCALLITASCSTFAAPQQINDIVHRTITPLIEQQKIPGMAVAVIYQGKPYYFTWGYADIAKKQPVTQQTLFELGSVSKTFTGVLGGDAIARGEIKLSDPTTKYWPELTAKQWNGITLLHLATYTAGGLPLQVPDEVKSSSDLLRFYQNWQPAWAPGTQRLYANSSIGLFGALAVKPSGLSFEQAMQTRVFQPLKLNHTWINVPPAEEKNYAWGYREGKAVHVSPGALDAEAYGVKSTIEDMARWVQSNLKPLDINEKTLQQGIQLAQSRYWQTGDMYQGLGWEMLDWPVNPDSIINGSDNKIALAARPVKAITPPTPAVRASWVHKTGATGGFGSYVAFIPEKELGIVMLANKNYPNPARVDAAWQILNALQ

Row | SMILES | Potency | activity change, negative = inhibition
1 | Cn1c(CN2CCN(C(=O)c3ccccc3Cl)CC2)nc2cc([N+](=O)[O-])ccc21 | inconclusive [inhibitor, single point] | 
2 | CC1=CC(C)(C)N2C(=O)C3(C(C#N)=C(N)OC4=C3C(=O)CC(C)(C)C4)c3cccc1c32 (centres undefined) | inconclusive [inhibitor, partial curve, poor fit] | 
3 | COc1ccccc1N1CCN(S(=O)(=O)c2cn(C)cn2)CC1 | inconclusive [inhibitor, full curve, poor fit] | 
4 | CCc1ccc(S(=O)(=O)N2CCN(c3ccccc3OC)CC2)cc1 | inconclusive [inhibitor, partial curve] | 
5 | Nc1cc(=O)[nH]c(SCc2ccc(Cl)cc2)n1 | inconclusive [inhibitor, partial curve] | 
6 | c1ccc2c(c1)nc(NCc1ccc3c(c1)OCO3)n2CCN1CCOCC1 |  | inactive: -1.04%
7 | COc1cccc(-n2cc(C(=O)NCc3ccccc3OC)c3ccccc3c2=O)c1 |  | inactive: 0.209%
8 | CC(C)c1cc(C(=O)N/N=C/c2ccoc2)cs1 |  | inactive: 1.03%
9 | Cc1cc(NC(=O)c2c(F)cccc2Cl)n(-c2nc3ccccc3[nH]2)n1 |  | inactive: 1.2%
10 | COc1cccc(CN(C)Cc2cc(=O)oc3cc(O)c(Cl)cc23)c1 | inconclusive [inhibitor, full curve, poor fit] | 
11 | CCOC(=O)C1=C(CNCc2ccc(C)cc2)NC(=O)NC1c1ccc(OC)cc1 (centres undefined) | inconclusive [inhibitor, full curve] | 
12 | CC(CC(=O)Nc1nccs1)c1ccccc1 (centres undefined) |  | inactive: -10.2%
13 | COCCCn1c(=O)c2ccccc2n2c(=S)[nH]nc12 | inconclusive [inhibitor, partial curve] | 
14 | CCOC(=O)c1[nH]c(C)c(/C(O)=C2\C(=O)C(=O)N(CCCN3CCOCC3)C2c2cccs2)c1C (centres undefined) |  | inactive: 2.37%
15 | CC1C/C(=N/Nc2ccc([N+](=O)[O-])cc2[N+](=O)[O-])CC(C)(C)C1 (centres undefined) | inconclusive [inhibitor, single point] | 
16 | CCCOc1ccc(CC(=O)NCc2ccco2)cc1OC | inconclusive [inhibitor, full curve, poor fit] | 
17 | Cc1[nH]c2ccccc2c1/C=N\NC(=O)CNc1ccc2c(c1)OCO2 | inconclusive [inhibitor, full curve, poor fit] | 
18 | O=C(Nc1ccc(N2CCN(C(=O)c3ccco3)CC2)cc1)c1ccc(F)cc1 |  | inactive: -3.19%
19 | O=C(OCCCN1CCCC1)C1(c2ccccc2)CCCC1 | inconclusive [inhibitor, full curve] | 
